How the values were obtained:
[1] = molecular target: T1, human TSG101 UEV domain (UEV-WT) (Homo sapiens, UniProt Q99816); assay: biochemical
[2] = molecular target: T1, human TSG101 UEV domain (UEV-WT); conditions: ITC200, 28°C, 20mM sodium phosphate pH 7.20, 150mM NaCl, 5% glycerol, cell 300-600 μM UEV, peptide 4 mM or 6.5 mM, 18 injections of 2.1 μl, one-site model, SD of three measurements, N.B. = no binding

T1 sequence (Q99816 2-145): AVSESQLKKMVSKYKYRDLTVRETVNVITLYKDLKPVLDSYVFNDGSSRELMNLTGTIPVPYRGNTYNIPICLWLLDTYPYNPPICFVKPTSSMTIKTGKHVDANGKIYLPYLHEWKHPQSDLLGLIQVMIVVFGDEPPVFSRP

Substance	Kd [1] [µM]	Kd (equilibrium dissociation constant, ITC) [2]
Ac-PEPTAPAEE-NH2 [P11A]	170 ± 15	
Ac-PESTAPPEE-NH2 [P7S]	1600 ± 14	measurable binding

Source: publication PMC3124085 (Structure (London, England : 1993), 2010)
